Assay results published in PubChem BioAssay AID686979 (National Center for Advancing Translational Sciences (NCATS), 2013).
Several values for one entry are separate records, joined by “and”; a condition that tells them apart may be missing. Equal entries are not always repeated. Hit rate of the full screen: of about 420,000 compounds, about 50,000 (12%) were called active. Inconclusive results, whose numbers are uncertain, are shown with a selection of clear calls. Calls come from the whole dose curve; as a rule, active = well fitted inhibition curve with a large enough effect; inconclusive = small, poorly fitted or top-dose-only effect; inactive = flat fitted curve, though single readings scatter. Potencies of inconclusive entries are doubtful fits and often do not repeat.
% is set by controls: 0 for no effect and ±100 for the full control effect; potency is the fitted concentration of half-maximal effect; tags give direction and shape of the fitted curve.

Assay: qHTS for Inhibitors of human tyrosyl-DNA phosphodiesterase 1 (TDP1): qHTS in cells in presence of CPT; note: nearly all actives have a fitted effect of over 55% in size
Conditions: chicken DT40 Tdp1-/-;hTDP1 cells + 20 nM CPT, ATP luminescence, 48 h; activity change, negative = growth inhibition: at 46.2 µM (top of the series)
Summary of the method: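 Cell growth measured by CellTiter-Glo luminescence after a minimum 48 h, 37 C compound exposure with 20 nM CPT in Tdp1-knockout DT40 cells stably expressing hTDP1, seeded 400/well; qHTS titration format.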
In the case of `CSc1ccc(CNC(=O)c2ccccc2NC(=O)c2nsc3ccccc23)cc1`, the Potency is reported as inconclusive: 29.1 µM [inhibitor, single point].
With `CN(C)S(=O)(=O)c1cccc(NC(=O)CCc2nc3sc4c(c3c(=O)[nH]2)CCCC4)c1` the Potency was active: 16.4 µM.
For `CN(CC1(C)CCCO1)S(=O)(=O)c1ccc(Cl)c(S(N)(=O)=O)c1` (stereo not given), the Potency was inconclusive: 29.9 µM [inhibitor, single point].
For `COc1ccc(OCC(=O)NCC(c2ccc(Cl)cc2)N2CCCCC2)cc1` (stereo not given), the Potency was active: 20.6 µM.
In the case of `COc1ccc(OCC(=O)Nc2ccc3c(c2)nc(CCN2CCN(C)CC2)n3C)cc1`, the Potency is reported as inconclusive: 29.1 µM [inhibitor, single point].
With `N#C/C(=C/c1ccc(F)cc1)c1nc(CCN2C(=O)c3ccccc3C2=O)cs1` the Potency was inconclusive: 29.1 µM [inhibitor, single point].
For `CC1=C(C(=O)N2CCCC(N3CCN(c4ccccc4C)CC3)C2)OCCO1` (stereo not given), the Potency was inconclusive: 16.4 µM [inhibitor, single point].
With `COc1ccc2c(c1)[nH]c1c(=O)n(/N=C/c3ccc(OC)c(CN4CCCCC4)c3)cnc12` the Potency was inconclusive: 29.1 µM [inhibitor, single point].
With `COc1cccc(-c2cc3nc(NCCCN(C)C)n(C)c(=O)c3s2)c1` the Potency was inconclusive: 29.1 µM [inhibitor, single point].
With `O=C(Nc1ncc(Cc2ccccc2Cl)s1)c1ccc([N+](=O)[O-])cc1` the Potency was inconclusive: 25.9 µM [inhibitor, single point].
For `COCCSc1ccccc1C(=O)Nc1ccc(S(=O)(=O)N2CCOCC2)cc1`, the “activity change, negative = growth inhibition” value was inactive: -18.7%.
With `CSc1ncccc1C(=O)OCC(=O)Nc1ccc(C)c(S(=O)(=O)N2CCOCC2)c1` the Potency was inconclusive: 16.4 µM [inhibitor, partial curve, poor fit].
With `COc1ccccc1OCCCOc1c(C)cc(C)cc1Br` the “activity change, negative = growth inhibition” value was inactive: -12.6%.
For `Cc1ccccc1Nc1c(-c2ccc(N3CCOCC3)cc2)nc2ncccn12`, the Potency was inconclusive: 25.9 µM [inhibitor, single point] and inconclusive: 23.1 µM [inhibitor, single point].
For `CCOc1ccc(NC(=S)N(CCc2c(C)[nH]c3ccc(C)cc23)Cc2ccco2)cc1`, the Potency was inconclusive: 18.4 µM [inhibitor, single point].
For `COCc1c(C(=O)OC)nnn1-c1ccc(C(F)(F)F)cc1[N+](=O)[O-]`, the Potency was active: 18.4 µM.
With `CCOC(=O)c1c(N)sc(N)c1C(=O)OCC` the Potency was active: 4.61 µM.
With `COC(=O)c1ccc(/C=C/c2ccc3cccc(OC(C)=O)c3n2)cc1` the Potency was active: 18.4 µM.
With `Cc1cc(NC(=O)COc2ccc3oc4ccccc4c3c2)no1` the Potency was inconclusive: 29.1 µM [inhibitor, single point].
In the case of `COCC1CCN(C(=O)c2ccc3oc(CCc4ccccc4)nc3c2)C1` (stereo not given), the Potency is reported as inconclusive: 16.4 µM [inhibitor, single point].
For `CCCCOc1ccc(C(=O)N(Cc2ccc(C(C)C)cc2)C2CCS(=O)(=O)C2)cc1` (stereo not given), the Potency was inconclusive: 18.4 µM [inhibitor, single point].
With `O=C(CN1C(=O)C2C3C=CC(C4CC34)C2C1=O)Nc1cnc2ccccc2c1` (stereo not given) the Potency was inconclusive: 29.1 µM [inhibitor, single point].
For `Cc1ccc(C)c(Nc2ccc(C(=O)NCCc3ccccc3)cn2)c1`, the Potency was inconclusive: 29.1 µM [inhibitor, single point].
With `COC(=O)c1scc(-c2ccccc2)c1S(=O)(=O)Nc1cccc(C)c1C` the Potency was inconclusive: 25.9 µM [inhibitor, single point].
With `Cc1cccn2c(=O)c(/C=N/O)c(N3CCCCC3)nc12` the Potency was inconclusive: 23.1 µM [inhibitor, single point].
With `COc1cc(NC(=O)c2cc([N+](=O)[O-])ccc2Br)ccc1NC(=O)c1ccco1` the Potency was inconclusive: 29.1 µM [inhibitor, single point].
In the case of `O=S(=O)(Cc1ccccc1)N1CCN(c2nc(-c3cccs3)nc3ccccc23)CC1`, the Potency is reported as inconclusive: 20 µM [inhibitor, single point].
For `O=C(NCCCN1CCCC1)c1ccc2c(c1)N(Cc1cccc(Cl)c1)C(=O)c1ccccc1S2(=O)=O`, the Potency was inconclusive: 20.6 µM [inhibitor, single point].
With `O=C(O)CCCCCCCCCCCc1ccccc1` the “activity change, negative = growth inhibition” value was inactive: 8.85%.
With `Cc1cc(C)c(NC(=O)CCc2c(C)nc3c(c(C)nn3C(C)(C)C)c2C)c(C)c1` the Potency was inconclusive: 4.61 µM [inhibitor, single point].
With `COc1ccc(CN2CCN(c3nc4ccccc4s3)CC2)cc1` the Potency was inconclusive: 29.1 µM [inhibitor, single point].
For `Cc1ccc(C(O)(CCN2CCCCC2)c2ccccc2)cc1` (stereo not given), the Potency was inconclusive: 29.1 µM [inhibitor, single point].
For `COc1ccc(N2CCN(C3=NS(=O)(=O)C(c4cccc(Br)c4)=C3C)CC2)cc1`, the “activity change, negative = growth inhibition” value was inactive: -29.2%.
With `CSc1ccc(CN2CCC2(C)C(=O)NC2CCc3ccccc32)cc1` (stereo not given) the Potency was inconclusive: 16.4 µM [inhibitor, single point].
With `CCOC(=O)c1c(NC(=O)OC)sc(C(=O)N(CC)CC)c1C` the Potency was inconclusive: 16.4 µM [inhibitor, partial curve, poor fit].
With `Cc1cccc(C)c1NC(=O)C1CCCN1S(=O)(=O)c1ccc(-c2ccc(=O)[nH]n2)s1` (stereo not given) the Potency was inconclusive: 25.9 µM [inhibitor, single point].
With `CCOc1ccc(NS(=O)(=O)c2ccc(C(=O)NCC(c3ccccc3OC)N3CCCC3)cc2)cc1` (stereo not given) the Potency was active: 29.1 µM.
For `CC12CCC(C[N+](C)(CCC[N+](C)(C)C)C1)C2(C)C` (stereo not given), the Potency was inconclusive: 33.5 µM [inhibitor, single point].
In the case of `COc1cccc(-c2ccc(NC(=O)C3CCCN(Cc4cnc(N(C)C)s4)C3)cc2)c1` (stereo not given), the Potency is reported as active: 18.4 µM.
For `CCOc1ccccc1N1CCN(C(=O)c2ccc(-c3ccc(OC(C)=O)cc3)cc2)CC1`, the Potency was inconclusive: 2.31 µM [inhibitor, partial curve, poor fit].
